Binding signal data for 14 molecules are collected here from publication PMC12136788.

Changes are numbered by the printed parent chain. The list shows a part of the results.

Sequences and labels used below:
B1: chr3:11298707:11298833:+|CDS|ENSG00000197548|unk|total|mutant (ssRNA)
RNA: GGGAGUUCUACAGUCCGACGAUCAUAAUGGCGGCAGCUACGGGGGAUCCUGGACUCUCUAAACUGCAGUUUGCCCCUUUCCGCCGUGCCUUGGAUGUUGGGUUUUGGCAUGAGUUGACCCAGAAGAAGCUGAACGAGUAUCGGCAACAGAGGAUUGAGCAUCA
B2: chr2:96373863:96373964:+|3pUTR|ENSG00000121152|unk|total|mutant (ssRNA)
RNA: GGGAGUUCUACAGUCCGACGAUCCCGAACUGGCAAAAUAUUUGAGUGUCCACCCGAUGAGUAUCAGACCCCGUCCUUACCCUCCGGGGGAUGCAGUCCUGGUUGUUAUCCAGGAUACACACCUGUCAGUAUAAGGCAGAAGAUCAACAGAGGAUUGAGCAUCA
B3: chr14:52864448:52864598:-|CDS|ENSG00000073712|unk|FALSE|unique (ssRNA)
RNA: GGGAGUUCUACAGUCCGACGAUCGAUGGCAGCCUGCAGAUUAGCCUCCAAAGGCAAGACCAUGGCGGACAGUUCUUACAACUUAGAAGUUCAGAAUAUUCUUUCCUUUCUGAAGAUGCAGCAUUUAAACCCAGAUCCUCAGUUCAACAGAGGAUUGAGCAUCA
B4: chr11:108172639:108172748:-|CDS|ENSG00000149308|unk|FALSE|unique (ssRNA)
RNA: GGGAGUUCUACAGUCCGACGAUCGUUAUCAUUAGUGAUGAUCCAUUUGUUUCCUCAGAUACUGAACUUACCAGUGCUGUUUCUAGUAUUAAUGGAGAAAACCUGCCAACUAUAAUCUUGUCUUCUCCUACUAAAUCACCUACUCAACAGAGGAUUGAGCAUCA
B5: chr1:22120052:22120517:-|CDS|ENSG00000162552|control|control|control (ssRNA)
RNA: GGGAGUUCUACAGUCCGACGAUCGUGCCACGCAACGCACAGUUCAAGCCGCACACAGAUGAGGACCUGGUGUACUUGGAGCCUAGCCCCGACUUCUGUGAGCAGGACAUGCGCAGCGGCGUGCUGGGCACGAGGGGCCGCACACAACAGAGGAUUGAGCAUCA
B6: chr6:145805060:145805161:-|CDS|ENSG00000118496|unk|total|mutant (ssRNA)
RNA: GGGAGUUCUACAGUCCGACGAUCAGAAGAUCCUAUGGGCCUCCAAGGAACCGAUCUGAUCACAGCAGCAUUGCUUUUUUGUCCCGGAGAUUCUCCAGGAGGGAGGGGUAUAUCUGACCGCCGCAUGGCUGAUAUUUAUCACAUCAACAGAGGAUUGAGCAUCA
B7: chr9:35056615:35056731:-|3pUTR|ENSG00000165280|msi1|FALSE|unique (ssRNA)
RNA: GGGAGUUCUACAGUCCGACGAUCCCCUAUCCAACCUGGGUAGGUGGGUAGGGGCCACAGUUGCUGGAUGUUUAUAUAGAGAGUAGGUUGAUUUAUUUUACAUGCUUUUGAGUUAAUGUUGGAAAACUAAUCACAAGCAGUUUCCAACAGAGGAUUGAGCAUCA
B8: chr2:25742488:25742589:-|CDS|ENSG00000143970|unk|FALSE|unique (ssRNA)
RNA: GGGAGUUCUACAGUCCGACGAUCCACUUUAAGUAAGGAGAAUUACCUGUUCACUAGAGGCCAAACAUUUGAUGAAAAGACCCUAGCCAGAGAUUUAAUUCAGGCAGCACAGAAGCAGAUGGCUCAUGCAGUGAGAGGUAAGGCCAACAGAGGAUUGAGCAUCA
B9: ENSG00000114354:stop:overlap|stop_codon|ENSG00000114354|stop_codon|NA|stop_codon (ssRNA)
RNA: GGGAGUUCUACAGUCCGACGAUCCAGCCGCAGGCUCCACCUCAGCAGCCUCAACAGUAUGGUAUUCAGUAUUCAGCAAGCUAUAGUCAGCAGACUGGACCUCAACAACCUCAGCAGUUCCAGGGAUAUGGCCAGCAACCAACUCAACAGAGGAUUGAGCAUCA
B10: chr3:11298707:11298833:+|CDS|ENSG00000197548|unk|FALSE|unique (ssRNA)
RNA: B1 RNA with C80U, C81A, C83U, C84A
B11: chr16:74449243:74449344:-|3pUTR|ENSG00000090863|msi1|FALSE|bound_elsewhere (ssRNA)
RNA: GGGAGUUCUACAGUCCGACGAUCUCUCCUAUCCUCCCAUCCUCCAGGCCUGUGGUGUGACUUCUGCCCCGAAGUUCCUACUAUAGUGAGUCAUCUGGGGAGAGGCCACUGAAAAGAGGCCUUCCCUUCCCAUUUCCUCCCCUGCAACAGAGGAUUGAGCAUCA
B12: chr12:293013:293114:-|CDS|ENSG00000073614|unk|total|mutant (ssRNA)
RNA: GGGAGUUCUACAGUCCGACGAUCACUAAAAGUGAAAGGAAAGGACUCUUCAGAGAAGAAACGGAAACGGAAGCCCGAAAAGGCCGAGCAACUUUUUGGAGAAGGAAAACAGAAGUCCAAGGAGUUAAAGAAAAUGGACAAACCCAACAGAGGAUUGAGCAUCA
B13: chr20:56370492:56370607:-|CDS|ENSG00000087586|unk|FALSE|unique (ssRNA)
RNA: GGGAGUUCUACAGUCCGACGAUCUCGGAUGCAUGAUGAGAAGGUGGAUCUCUGGAGCCUUGGAGUUCUUUGCUAUGAAUUUUUAGUUGGGAAGCCUCCUUUUGAGGCAAACACAUACCAAGAGACCUACAAAAGAAUAUCACGCAACAGAGGAUUGAGCAUCA
B14: chr16:21655520:21655610:+|3pUTR|ENSG00000197006|msi1_unk|FALSE|overlapping (ssRNA)
RNA: GGGAGUUCUACAGUCCGACGAUCUCUGUGUUCACAAUUACGUGAAGGGAGGACCCUUGGGGACCGCCAUUCUAAAUAUCAUGUAGGAAUUUAAAAAGCCAAAAUACUAAUUAUUUCUUUGUAGUGUGUAAAGGAAUGUUUUUACAACAGAGGAUUGAGCAUCA

The test addresses T1, UNK ZnF1-6 (called full-length) (human, UniProt Q9C0B0 30-357).
T1 sequence: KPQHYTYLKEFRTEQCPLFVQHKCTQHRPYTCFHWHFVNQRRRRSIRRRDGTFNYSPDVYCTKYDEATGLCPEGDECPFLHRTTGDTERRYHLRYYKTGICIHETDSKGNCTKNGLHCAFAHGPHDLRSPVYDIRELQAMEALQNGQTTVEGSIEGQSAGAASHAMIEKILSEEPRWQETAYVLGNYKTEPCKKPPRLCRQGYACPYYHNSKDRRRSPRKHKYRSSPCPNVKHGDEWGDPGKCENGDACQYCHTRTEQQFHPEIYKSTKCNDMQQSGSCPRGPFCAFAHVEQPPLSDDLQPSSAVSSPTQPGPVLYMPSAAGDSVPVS
Put plainly: nsRBNS (natural sequence RNA bind-n-seq); RBNS binding buffer (assumed for nsRBNS): 25 mM Tris pH 7.5, 150 mM KCl, 3 mM MgCl2, 0.01% Triton X-100, 500 ug/ml BSA, 20 U/ml SUPERase-In, 4 C; UNK is unkempt and MSI1 is Musashi-1; names of the RNAs are library labels; protein concentration not given here; high values mean tight binding.
In turn, B1 returned a binding signal of 0.839 enrichment R. For B2, the binding signal stood at 0.443 enrichment R. Under B3 stands 0.725 enrichment R; under B4, 0.572 enrichment R; under B5, 0.813 enrichment R.

For B6, the binding signal worked out at 0.653 enrichment R.

On to B7, for which the binding signal came to 0.815 enrichment R. As for B8, the binding signal was found to be 0.627 enrichment R. For B9 the value was 1.05 enrichment R; for B10, 1.67 enrichment R; for B11, 0.706 enrichment R. For B12 the value was 0.581 enrichment R; for B13, 0.474 enrichment R; for B14, 1.1 enrichment R.
